The source gives no read counts; variants with many changes may rest on few reads.

Self-cleavage data for 41 variants are collected here from the RNAGym collection of RNA variant scans (doi:10.7554/elife.90254).

The chains are these.
B1: OR4K15 (parent)
chain: GUUAACGGUCAUAGGCCAUGGAAACUAGGAGCACCAUUUCGCUGCCAGUGAAGAAAUGAACAAAGAAAAUCUGGGCCAGGCAGGCAUCAAAAGAAAUAGUCUUGCGCUCAACCAGAAAGUCUGUAAUCAUUUUAAGGGUA

In the data set the parent is B1. Nature of the data set: self-cleavage, relative activity (ratio to wild type); higher = more cleavage; in vitro, sequencing; the parent is a self-cleaving ribozyme.
Consider GUUAACGGUCAUAGGCCAUGGAAACUAGGAGCACCAUUUCGCAGCCAGUGAAGAAAUGAACUAAGAAAAUCUGGGCCUGGCAGGUAUCGAAAGAAAUAGUCUUGCGCUCAACCAGAAAGUCUGUAAUCAUUUUAAGGGCA [U43A A62U A78U C85U A89G U139C], for which the self-cleavage was 0.29.
Under GUUAACGGUCAUAGGCCAUGGAAACUAGGAGCACCAUUUCGCAGCCAGUGAAGAAAUGAACAAAGAAUAUCUGGGCCAGGCAGGCAUCAAAAGAAAUGGUCUUGCGCUCAACCUGAAAGUCUGUAAUCAUUUUAGGGGUA [U43A A68U A98G A114U A135G] stands 0.
As for GUUAACGGUCAUAGGCCAUGGAAACUAGGAGCACCAUUUCGCAGCCAGUGAAGAAAUGGACAAAGAAAAUCUGGGCCAGGCAGGCAUCAAAAGAAAUAGUCUUGCGCUCAACCAGGAAGUCUGUAAUCAUUUUGAGGGUA [U43A A59G A116G A134G], the figure is 0.4; as for GUUAACGGUCAUAGGCCAUGGAAACUAGGAGCACCAUUUCGCAGCCAGUGAAGAAAUGAACAAGGAAAAACUGGGCCAGGCAGGCAUCAAAAGAAAUAGUCUUGCGCUCAACCAGAAAGUCUGUAAUCAUUUUAAGGGUA [U43A A64G U70A], 1.97.
For the variant GUUAACGGUCAUAGGCCAUGGAAACUAGGAGCACCAUUUCGCAGCCAGUGAAGAAAUGAGCAAAGAAAAUCUGGGCCAGGCUGGCAUCAAAAGAAAUAGUCUUGCGCUCAACCAGAGAGUCUGUAAUCAUUUUAAGGGUA [U43A A60G A82U A117G], the self-cleavage stood at 0.23.
Under GUUAACGGUCAUAGGCCAUGGAAACUAGGAGCACCAUUUCGCAGCCAGUGAAGAAAUGAACAAAGAAAAUCUGGGCCAGGCAGGCAUCGAAGGAAAUAGUCUUGCGCUCAACCUGAAAGUCUGUAAUCAUUUUAAGGGUA [U43A A89G A92G A114U] stands 0.01; under GUUAACGGUCAUAGGCCAUGGAAACUAGGAGCACCAUUUCGCAGCCAGUGAAGAAAUGAACAAAGAAAAUCUGGGCCUGGCAGGCAUCAAAAGAAAUAGUCUUGCGCUCAACCAGAAAGUCUGUAAUCAUUUUAAGGGCG [U43A A78U U139C A140G], 0.47.
On to GUUAACGGUCAUAGGCCAUGGAAACUAGGAGCACCAUUUCGCAGCCAGUGAAGUAAUGAACAAUGAAAAUCUGGGCCAGGCAGGCAUCAAAAGAACUAGUCUUGCGCUCAACCAGAAAGUCUGUAAUCAUUUUAAGGGUA [U43A A54U A64U A96C], for which the self-cleavage was 0.69.
Under GUUAACGGUCAUAGGCCAUGGAAACUAGGAGCACCAUUUCGCAGCCAGUGAAGAAAUGAACAAAGAAAAUCUGGGCCUGGCAGGCAUCAAAGGAAAUAGCCUUGCGCUCAACCAGAAAGUCUGUAAUCAUUUUAAGGGUA [U43A A78U A92G U100C] stands 1.82.
As for GUUAACGGUCAUAGGCCAUGGAAACUAGGAGCACCAUUUCGCAGCCAGUGAAGAAAUGAACAAAGAAAAUCUGGGCCAGGCAGGCAUCAAAGGAAAUAGUCUUGCGCACAACCAGAGAGUCUGUAAUCAUUUUAAGGGUA [U43A A92G U108A A117G], the figure is 0.01; as for GUUAACGGUCAUAGGCCAUGGAAACUAGGAGCACCAUUUCGCAGCCAGCGAAGAAAUGAACAAAGAAAAUCUGGGCCAGGCAGGCAUCAAAAGAAUUAGUCUUGCGCUCAACCAGAAAGUCUGUAAUCACUUUAAGGGUA [U43A U49C A96U U130C], 1.48; as for GUUAACGGUCAUAGGCCAUGGAAACUAGGAGCACCAUUUCGCAGCCAGUGAAGAAGUGAACAAAGAGAAUCUGGGCCAGGCAGGCAUCAAAAGAAAUAGUCUUGCGCUCAACCAGAAAGUCUGUAAUCAUUUUAAGGGUA [U43A A56G A67G], 1.12.
As for GUUAACGGUCAUAGGCCAUGGAAACUAGGAGCACCAUUUCGCAGCCAGUGAAGAAGUGAACAAAGAUAAUCUGGGCCAGGCAGGCAUCAAAAGAAAUAGUCUUGCGCUCAACCAGAAAGUCUGUAAUCAUUUUAAGGGUA [U43A A56G A67U], the figure is 1.45.
In the case of GUUAACGGUCAUAGGCCAUGGAAACUAGGAGCACCAUUUCGCAGCCAGUGAAGAAAUGAACAAAGAAAGUCUGGGCCAGGCAGGCAUCAAAAGAAAUAGUCUUGCGCUCAACCAGAAAGUCUAUAAUCAUUUUAAGGGUA [U43A A69G G123A], the self-cleavage was found to be 0.69.
Under GUUAACGGUCAUAGGCCAUGGAAACUAGGAGCACCAUUUCGCAGCCAGUGAAGAAAUGAACAAAGAAAAUCUGGGCCAGGCAGGCAUCGAAAGAAAUAGUCUUGCGCUCAACCAGGAAGUCUGUAAUCAUUUUAAGGGUA [U43A A89G A116G] stands 1.32; under GUUAACGGUCAUAGGCCAUGGAAACUAGGAGCACCAUUUCGCAGCCAGUGAAGAAGUGAACAAAGAAAAUCUGGGCCAGGCAGGCAUCAAAAGAAAUAGUCUUGCGCUCAACCAGAAAGUCUGUAAUCAUUUUAAGGGUG [U43A A56G A140G], 1.66; under GUUAACGGUCAUAGGCCAUGGAAACUAGGAGCACCAUUUCGCAGCCAGUGAAGAAAUGAACAAAGAAAAUCUGGGCCAGGCAGGCAUCAAAAGAAAUAGUCUUGCGCUCAACCAGAAAGUCUGUAAUCGUUUUAAGGGCA [U43A A129G U139C], 0.97.
As for GUUAACGGUCAUAGGCCAUGGAAACUAGGAGCACCAUUUCGCAGCCAGUGAAGAAAUGAGCAAAGAAAAUCUGGGCCAGGCAGGCAUCAGAGGAAAUAGUCUUGCGCUCAACCAGAAAGUCUGUAAUCAUUUUAAGGGUA [U43A A60G A90G A92G], the figure is 0.83; as for GUUAACGGUCAUAGGCCAUGGAAACUAGGAGCACCAUUUCGCAGCCAGUGAAGAAAUGAGCAAAGAAAAUCUGGGCCAGGCAGGCAUCAAAAGAAAUAGUCUUGCGCCCAACCAGAAAGUCUGUAAUCAUUUUAAGGGUA [U43A A60G U108C], 0.02.
As for GUUAACGGUCAUAGGCCAUGGAAACUAGGAGCACCAUUUCGCAGCCAGUGAAGGAAUGAACAAAGAAAAUCCGGGCCAGGCAGGCAUCAAAAGAAAUAGUCUUGCGCUCAACCAGAAAGUCUGUAAUCAUUUUAAGGGUA [U43A A54G U72C], the figure is 0.18.
GUUAACGGUCAUAGGCCAUGGAAACUAGGAGCACCAUUUCGCAGCCAGUGAAGAAAUGGACAAAGAAAAUCUGGGCCAGGCAGGCAUCAAAAGAAAUAGUCUUGCGCUCAACCAGAAAGUCUGUAAUCGUUUUAAGGGUA [U43A A59G A129G]: the self-cleavage was determined as 1.04.
With GUUAACGGUCAUAGGCCAUGGAAACUAGGAGCACCAUUUCGCAGCCAGUGAAGAAUUGAACAAAGGAAAUCUGGGCCAGGCAGGCAUCAAAAGAAAUAGUCUUGCGCUCAACCAGAAAGUCUGUAAUCAUUUUAAGGGCA [U43A A56U A66G U139C], the self-cleavage was 0.91.
As for GUUAACGGUCAUAGGCCAUGGAAACUAGGAGCACCAUUUCGCAGCCAGUGAAGAGAUGAACAAAGAAAAUCUGGGCCAGGCAGGCAUCAAAAGAAAUAGUCUUGCGCUCAACCAGAAAGCCUGUAAUCAUUUUAAGGGUA [U43A A55G U120C], the figure is 1.92.
Turning to GUUAACGGUCAUAGGCCAUGGAAACUAGGAGCACCAUUUCGCAGCCAGUGAAGAAAUGAACAAAGAAAAUCUGGGCCAGGCAGGCAUCAAAAGAGAUAGUCUUGCGCUCAACCAGAAAGUCUGUAGUCAUUUUAAGGGUA [U43A A95G A126G], the self-cleavage came to 1.63.
As for GUUAACGGUCAUAGGCCAUGGAAACUAGGAGCACCAUUUCGCAGCCAGUGAAGAAAUGAACAAAGAGAAUCUGGGCCAGGCUGGCAUCAAAAGAAAUAGUCUUGCGCUCAACCAGGAAGUCUGUAGUCAUUUUAAGGGUA [U43A A67G A82U A116G A126G], the figure is 0.07.
With GUUAACGGUCAUAGGCCAUGGAAACUAGGAGCACCAUUUCGCAGCCAGUGAAGAAAUGAACAAAGGAAAUCUGGGCCAGGCAGGCAUCAAAAGAAAUAGUCUUGCGCUCAACCAGAAAGUCUGUAGUCAUUUUAAGGGUA [U43A A66G A126G], the self-cleavage is 0.77.
On to GUUAACGGUCAUAGGCCAUGGAAACUAGGAGCACCAUUUCGCAGCCAGUGAAGAAAUGAGCAAAGAAAAUCUGGGCCAGGCAGGCAUCAAAAGGAAUAGUCUUGCGCUCAACCAGAAAGUCUGUAAUCAUUUUAAGGGUA [U43A A60G A94G], for which the self-cleavage was 1.35.
As to GUUAACGGUCAUAGGCCAUGGAAACUAGGAGCACCAUUUCGCAGCCAGUGAAGACAUGAACAAAGAAAAUCUGGGCCAGGCAGGCAUCAAAAGAAAUAGUCUUGCGCACAACCAGAAGGUCUGUAAUCAUUUUAAGGGUA [U43A A55C U108A A118G], the self-cleavage came out at 0.01.
As for GUUAACGGUCAUAGGCCAUGGAAACUAGGAGCACCAUUUCGCAGCCAGUGAAGAAAUGAACAAAGAAAAUCUGGGCCAGGCAGGCAUCAAGAGAAGCAGUCAUGCGCUCAACCAGAAAGUCUGUAAUCAUUUUAAGGGUA [U43A A91G A96G U97C U102A], the figure is 0.18; as for GUUAACGGUCAUAGGCCAUGGAAACUAGGAGCACCAUUUCGCAGCCAGUGAAGAAAUGAACUAAGAAAAUCUGGGCCAGGCAGGCAUCAAAAGAAAUAGUCUUGCUCUCAACCAGGAAGUCUGUAAUCAUUUUAAGGGUA [U43A A62U G106U A116G], 0.01; as for GUUAACGGUCAUAGGCCAUGGAAACUAGGAGCACCAUUUCGCAGCCAGUGAAGAAAUGAACAAAGAAAAUCUGGGCCAGGCACGCAUCAAAAGAAAUAGUCUUGCACUCAACCAGAAAGUCUGUAAUCAUUUUAAGGGUA [U43A G83C G106A], 0.02.
As for GUUAACGGUCAUAGGCCAUGGAAACUAGGAGCACCAUUUCGCAGCCAGUGAAGAAAUGAACAAAGAAAAUCUGGGCCAGGCAGGCAUCAAAAGAAAUGGUCUUGCGCUCAACCAGAAAGUCUGUAAUCAUUAUAAGGGUA [U43A A98G U132A], the figure is 0.49; as for GUUAACGGUCAUAGGCCAUGGAAACUAGGAGCACCAUUUCGCAGCCAGUGAAGAAAUGAACAAAGAAAAUCUGGGCCAGGCAGGCAUCAAGGGAAAUAGUCUUGCGCUCAACCAGAAAGUCUGUAAUCAUUUUAAGGGUA [U43A A91G A92G], 0.8.
As for GUUAACGGUCAUAGGCCAUGGAAACUAGGAGCACCAUUUCGCAGCCAGUGAAGAGAUGAACAAAGAAAAUCUGGGCCAGGCAGGCAUCAAAAGAAAUAGUCUUGCGCUCAACCAGAAAGUCUGUAAUCAUUUUGAGGGUA [U43A A55G A134G], the self-cleavage stood at 2.41.
As for GUUAACGGUCAUAGGCCAUGGAAACUAGGAGCACCAUUUCGCAGCCAGUGAAGAAAUGAACAAAGAAGAUCUGGGCCAGGCAGGCAUCAAAAGAAAUAGUCUUGCGCUCAACCAGAAAGCCUGUAAUCACUUUAAGGGUA [U43A A68G U120C U130C], the self-cleavage is 0.97.
As for GUUAACGGUCAUAGGCCAUGGAAACUAGGAGCACCAUUUCGCAGCCAGUGAAGAAAUGAACAAAGAAAAUCUGGGCCAGGCAGGCAUCAAAAGGAAUAGUCUUGCGCUCAACCAGAAAGUCUGUAACCAUUUUAAGGGUA [U43A A94G U127C], the figure is 1.02; as for GUUAACGGUCAUAGGCCAUGGAAACUAGGAGCACCAUUUCGCAGCCAUUGAAGAAAUGAACAAAGAAAAUCUGGGCCAGGCAGGCAUCAAAAGAAAUAGUCUUGCGCUCAACCAGAAAGUCCGUAAUCAUUUUAAGGGUA [U43A G48U U122C], 1.14.
Regarding GUUAACGGUCAUAGGCCAUGGAAACUAGGAGCACCAUUUCGCAGCCAGUGAAGAAAUGAACAAAGAAAAUCUGGGCCAGGCGGGCAUCAAAAGAAAUAGUCUUGCGCUCCACCAGAAAGUCAGUAAUCAUUUUAAGGGUA [U43A A82G A110C U122A], the self-cleavage is 0.05.
Under GUUAACGGUCAUAGGCCAUGGAAACUAGGAGCACCAUUUCGCAGCCAGUGAAGAGAUGAACAAAGAAAAUCUGGGCCAGGCAGGCAUCAAAAGAAAUAGUCUUGCGCUCAACCAGAGAGUCUGUAAUCAUUUUAAGGGUA [U43A A55G A117G] stands 1.62.
Turning to GUUAACGGUCAUAGGCCAUGGAAACUAGGAGCACCAUUUCGCAGCCAGUGAAGAAAUGAACAAAGAAAAUCUAGGCCAGGCAGGCACCAAAAGAAGUAGUCUUGCGCUCAACCAGAAAGUCAGUAAUCAUUUUAAGGGUA [U43A G73A U87C A96G U122A], the self-cleavage was found to be 0.07.
Turning to GUUAACGGUCAUAGGCCAUGGAAACUAGGAGCACCAUUUCGCAGCCAGUGAAGAAAUGAACAAAGAAGAUCUGGGCCAGGCAGGCAUCAAAAGAAAUAGUCUCGCGCUCAACCAGAAAGUCUGUAAUCAUUUUAAGGGUA [U43A A68G U103C], the self-cleavage stood at 1.37.
